Measurements reported in PMC4336329 (PLoS ONE, 2015).
Hit rate of the full screen: of about 310,000 compounds, about 14,000 (4.5%) showed an effect of 50% or more. Effects have a minus sign here. The list shows a part of the results.

The compounds below were run against human ether-à-go-go-related gene (hERG) potassium channel (human, UniProt Q12809) (assay: primary screen, population patch clamp on CHO cells stably expressing hERG).
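Also: peak tail current of the secondary pulse compared with the same well before compound.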

Sequence of human ether-à-go-go-related gene (hERG) potassium channel (Q12809 whole entry, looked up): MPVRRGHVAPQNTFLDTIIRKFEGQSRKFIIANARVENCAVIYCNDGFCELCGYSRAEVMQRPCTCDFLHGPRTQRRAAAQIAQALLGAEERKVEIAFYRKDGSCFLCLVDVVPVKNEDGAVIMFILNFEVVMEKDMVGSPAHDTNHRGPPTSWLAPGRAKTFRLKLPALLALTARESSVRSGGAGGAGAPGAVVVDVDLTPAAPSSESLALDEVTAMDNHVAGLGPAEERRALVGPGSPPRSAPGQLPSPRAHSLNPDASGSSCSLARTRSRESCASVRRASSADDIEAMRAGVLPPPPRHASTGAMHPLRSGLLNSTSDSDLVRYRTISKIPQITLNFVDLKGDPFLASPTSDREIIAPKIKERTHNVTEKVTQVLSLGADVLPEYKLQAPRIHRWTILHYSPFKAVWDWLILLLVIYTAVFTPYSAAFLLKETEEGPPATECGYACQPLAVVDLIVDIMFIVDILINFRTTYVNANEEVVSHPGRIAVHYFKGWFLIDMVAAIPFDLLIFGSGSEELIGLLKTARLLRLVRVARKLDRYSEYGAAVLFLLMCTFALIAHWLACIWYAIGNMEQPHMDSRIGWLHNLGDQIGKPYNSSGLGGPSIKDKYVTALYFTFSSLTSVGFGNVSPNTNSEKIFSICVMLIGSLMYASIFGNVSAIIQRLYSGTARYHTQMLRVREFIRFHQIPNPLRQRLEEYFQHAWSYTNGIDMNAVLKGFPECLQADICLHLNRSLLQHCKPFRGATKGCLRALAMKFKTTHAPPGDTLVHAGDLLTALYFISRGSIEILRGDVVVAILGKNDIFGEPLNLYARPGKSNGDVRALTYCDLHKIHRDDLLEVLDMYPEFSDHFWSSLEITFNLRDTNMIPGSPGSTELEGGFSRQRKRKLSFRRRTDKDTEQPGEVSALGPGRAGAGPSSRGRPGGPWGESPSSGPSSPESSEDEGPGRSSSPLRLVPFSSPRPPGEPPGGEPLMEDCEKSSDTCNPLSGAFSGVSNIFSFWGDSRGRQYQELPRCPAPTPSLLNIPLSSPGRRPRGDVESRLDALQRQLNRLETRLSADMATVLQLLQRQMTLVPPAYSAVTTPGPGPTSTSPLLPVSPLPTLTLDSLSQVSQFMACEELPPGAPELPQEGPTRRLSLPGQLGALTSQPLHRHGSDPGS

SMILES | hERG current change (%, negative = inhibition) at 10uM
COC(=O)Cc1ccc(NC(=O)c2ccc(Br)o2)cc1 | -4.22%
Cc1ccc(N2CC(C(=O)NC3=NCCS3)CC2=O)cc1 (stereo not drawn) | 9.51%
COc1ccc(C(=O)Nc2ccc(OCC(F)(F)C(F)F)c(C(F)(F)F)c2)cc1OC | 3.72%
O=C(N/N=C/c1ccc([N+](=O)[O-])o1)c1ccc(O)cc1 | 8.14%
O=C(O)C1CCCN(C(=O)NCc2ccccc2)C1 (stereo not drawn) | 11.2%
CCC1=Nc2cc(C(=O)NCCCOC)ccc2Sc2ccccc21 | -9.35%
COc1cc(S(=O)(=O)N2CCN(c3ccccc3)CC2)ccc1Cl | 19%
O=C1CCC(C(=O)NCc2ccc3c(c2)OCO3)N1 (stereo not drawn) | 8.37%
O=C(Nc1ccc2c(c1)OCCO2)c1cc2sccc2n1Cc1ccccc1 | -0.576%
O=C(NCCN1C(=O)S/C(=C\c2ccc(OC(F)F)cc2)C1=O)[C@@H]1CCCN1C(=O)c1cccs1 | -63.5%
CCN(CC)C(=O)CSc1nnc(CNc2ccc(F)cc2)o1 | 1.13%
Cn1c(SCc2cccc(Br)c2)nnc1-c1ccncc1 | -17.1%
S=C(NC1CCCCC1)N1CCc2[nH]c3ccccc3c2C1 | 12.3%
Cl.Fc1ccc(CNC2CN3CCC2CC3)cc1 (stereo not drawn) | -4.96%
CCC1=C(OC(=O)N(CC)CC)N2C(=O)OC(=NCCc3c[nH]c4ccccc34)[C@]2(Cc2ccccc2)[C@H]2C1=CC[C@H]1C(=O)N(CC)C(=O)[C@H]12 | 10.8%
NC(N)=NC1=NC(=O)/C(=C/c2ccccc2-n2cccn2)S1 | 19.1%
Cn1c2c(c(=O)n(C)c1=O)CN(CC1CCCO1)CN2 (stereo not drawn) | 9.87%
Brc1ccc(CN2C3=NCCCN3c3ccccc32)cc1.Cl | -74.2%
C=CCNC(=O)c1ccc([N+](=O)[O-])c(Cl)c1 | -2.24%

SMILES | hERG current change (%, negative = inhibition) at 10uM
Cc1ccc(C)c(Cn2cnc3c(oc4ccccc43)c2=O)c1 | 11.2%
O=C(COc1ccc2ccccc2c1)Nc1ccccc1C(=O)O | 26.6%
COc1ccc(C2N(c3ccccc3)C(=O)C2(F)F)cc1OC (stereo not drawn) | -5.59%
Clc1ccccc1C(c1ccccc1)(c1ccccc1)n1ccnc1 | -10.4%
COCCNc1oc(-c2ccccc2Cl)nc1C#N | -13.3%
O=C(CN1C(=O)c2ccccc2S1(=O)=O)NC1CCCCCC1 | -1.49%
Cc1ccc(-c2nn(Cc3ccccc3)cc2C(=O)N2CCN(c3ccccn3)CC2)cc1 | -28.7%
Cc1ccc(CCNC(=O)C2CCCN(c3ncnc4c3nc3n4CCCCC3)C2)cc1 (stereo not drawn) | -28.7%
O=C(OCc1nnc(-c2ccccc2)o1)c1cc(Cl)ccc1[N+](=O)[O-] | 13%
CNC(=O)c1[nH]cnc1C(=O)Nc1ccccn1 | 12.9%
CCC(=O)Nc1c2c(nn1-c1ccc(C)cc1)CS(=O)(=O)C2 | 4.91%
COc1cccc(OC)c1C(=O)NNC(=O)c1ccccc1-n1cccc1 | 31%
C=CCSc1nc2c(c(=O)[nH]c(=O)n2C)n1CC | -1.39%
COc1ccc(S(=O)(=O)N2CCN(C/C=C/c3ccccc3)CC2)cc1NC(C)=O | -77.9%
Cc1cc(C)n(CC(=O)N/N=C/c2cccc([N+](=O)[O-])c2)n1 | -13.6%
COc1cccc(NC(=O)CN(C)C(=O)CCNC(=O)c2ccccc2Cl)c1 | 5%
Cc1nc(C)n(CC(O)COc2ccc(C(=O)c3ccccc3)cc2)n1 (stereo not drawn) | -6.4%
COc1ccc(C2C(=O)N(C3CCCCC3)CC(=O)N2CC2COc3ccccc3O2)cc1 (stereo not drawn) | -21.1%
CN1C(=O)C(=Cc2ccc(N3CCOCC3)c([N+](=O)[O-])c2)C(=O)N(C)C1=O | 11.4%

SMILES | hERG current change (%, negative = inhibition) at 10uM
COc1ccc(CCNC(=O)Cn2cnc3scc(-c4ccccc4)c3c2=O)cc1OC | 8.19%
O=C(O)Cc1sc(-c2ccc(C(=O)O)cc2)nc1-c1ccccc1 | 19.1%
CS(=O)(=O)N(CC(=O)NCc1ccccn1)Cc1ccc(Cl)cc1 | -4.12%
CC(C)Cc1cc(C(=O)NCc2cccnc2)no1 | 2.93%
Cc1ccc(-n2c(CSc3nc(C)cc(C)n3)nnc2SCC(=O)NCc2ccco2)cc1 | -38.7%
O=C(O)CCCCc1nc2ccccc2s1 | -4.44%
Nc1cc(N)nc(SCC(=O)NNC(=O)Cc2ccccc2)n1 | 16.2%
CCCCCOc1ccc(NC(=O)C(=O)NCC2CCCN2CC)cc1 (stereo not drawn) | -77.9%
O=S(=O)(c1ccc(Cl)cc1)N1CCCc2ccccc21 | 0.861%
CCOC(=O)CN1CC23C=CC(O2)C(C(=O)Nc2ccc(OCC)cc2)C3C1=O (stereo not drawn) | -1.97%
CS(=O)(=O)c1ccc(Cl)c(NC(=O)C2CC(=O)N(c3ccc4c(c3)OCCO4)C2)c1 (stereo not drawn) | 11.5%
O=C1C=C(NCc2ccc(Cl)cc2Cl)C2(CCCCC2)O1 | 2.49%
CC(C)C(=O)OCC(=O)NCc1ccccc1Cl | 0.409%
O=C(O)c1cc(Cl)c(Cl)cc1C(=O)N1CCCC1 | 6.47%
CC1CCCCN1CCNC(=O)c1ccc2c(=O)n(CCc3ccccc3)c(=O)[nH]c2c1 (stereo not drawn) | -38.7%
CCCNC(=O)Nc1ccsc1C(=O)OC | 3.8%
CCCCC(CC)CN1C(=O)/C(=C/c2ccncc2)SC1=S (stereo not drawn) | 3.65%
CC(=O)N1CCc2ccc(S(=O)(=O)N3CCN(C)CC3)cc21 | 14.8%
COc1ccc(NS(=O)(=O)c2ccc(NC(=O)c3ccccc3)cc2)nn1 | -0.597%
